# Experimental data taken from ChEMBL document CHEMBL4888484, “Replenishing the malaria drug discovery pipeline: Screening and hit evaluation of the MMV Hit Generation Library 1 (HGL1) against asexual blood stage Plasmodium falciparum ,using a nano luciferase reporter read-out” (2022).
# Screen size: about 150,000 compounds; about 540 (0.36%) showed an effect of 50% or more. This is one part of the list.
# System: Plasmodium falciparum
# Assay: Primary screen in NF54 nanoGlo assay, in single point, at 2uM, 72h; a lower Z score goes with more inhibition
# Format: functional, Erythrocyte
# Settings: timepoint 72 hour
SMILES,% Inhibition [%],Z score
CCOC(=O)c1ncn(C2CCN(C(=O)Nc3ccc(N(C)C(C)C)c(F)c3)CC2)c1N,-2,0.18
CCc1noc(COCC(=O)N2CCC[C@]2(C)Cc2cc(Cl)cs2)n1,-2,0.3
COC[C@@H](c1ccccn1)N(C)Cc1noc(C2CCCC2)n1,-11,1.46
CC1(C)OCC2CC21NC(=O)Nc1cnn(-c2ncccc2C#N)c1 (stereo unspecified),6,-0.77
CCCO/C(=N/C(=O)c1ccc2c(c1)OCO2)NCCCc1ccccc1,-13,1.9
CN(Cc1cc(C(F)(F)F)n[nH]1)C1CCOCC1,4,-0.56
CCn1cc(-c2ccccc2)cc1C(=O)N1CCCC1,5,-0.82
CNC(=O)Cc1ccccc1NC(=O)N[C@H]1CCCN(C(=O)OC)C1,-5,0.61
N#Cc1c(F)cccc1NCc1nccs1,-11,1.19
CCc1nc(C)c(C(=O)NC(C)C2CC3CCC2C3)s1 (stereo unspecified),-5,0.59
N#Cc1c(N)nc2c(c1-c1cccn1-c1ccccn1)C[C@@H](N)CC2,-7,1.19
C[C@@H](c1nccs1)N1CCN(S(=O)(=O)c2cnnn2C)CC1,8,-1.48
OC[C@H](Cc1c[nH]c2ccccc12)Nc1ncc(Br)cn1,2,-0.33
CC(C)c1cc(C(=O)N2CCN(c3ccccn3)CC2)c2ccccc2n1,-1,0.16
O=C(Nc1ccc(CC(=O)N2CCOCC2)cc1)[C@@H]1CC=CCC1,0,0.04
CC(C)c1cc(C(=O)Nc2cc(C(=O)O)cs2)no1,34,-3.81
Cc1nc(C(=O)N2CCC(n3cc(CN4CCCC4)nn3)CC2)c[nH]1,-16,2.1
CCCN(CCC)C(=O)C[C@H](c1ccc(F)cc1)c1cn(Cc2ccc(F)cc2)c2ccccc12,0,0.02
Cc1nnnn1Cc1nc(-c2ccncc2)nn1C1CCCCC1,-25,2.24
CC1(C)C[C@@H](C(=O)N2CCC(n3cc(-c4ccccn4)nn3)CC2)CCO1,-2,0.25
O=C(c1cc(-n2cnnn2)[nH]n1)N1CCN(C2CCCCC2)CC1,-7,1.31
O=C(NC1CC1)[C@@H]1CCCN1c1ncccc1Cl,-10,0.87

SMILES,% Inhibition [%],Z score
COCc1nc(CCNC(=O)c2cccs2)no1,-3,0.44
CCN(CC(=O)NCCC#N)Cc1cccc(F)c1,-14,1.46
CC[C@H](C)NC(=O)CN1CCN(C(=O)c2scnc2C2CCCC2)CC1,6,-0.79
CCn1cc(CN(C)C(=O)CCn2cnnn2)cn1,-9,1.36
Cc1nn(-c2nc3ccccc3[nH]2)c2c1[C@@H](c1c(C)sc3ccccc13)CC(=O)N2,4,-0.46
COc1ccc(CN(C(=O)c2cc[nH]n2)[C@@H](C)C2CC2)c(OC)c1,20,-2.17
O=S(=O)(NCC[C@H](O)c1cccs1)c1cccs1,-3,0.4
COC(=O)[C@H](Cc1ccc(OC)cc1)NC(=O)[C@H]1CN(C(=O)c2ccc(N(C)C)cc2)CCN1C(=O)NC1CCCCC1,17,-1.97
Cc1ncsc1S(=O)(=O)N1CCOCC1,-15,1.65
Cc1ccc(CNC(=O)c2nn(C(C)C)c3c2COCC3)o1,-9,1.09
CC(C)(C)n1c(=O)c2ccc(Cl)cc2n1CC(=O)Nc1ccc(Cl)cc1F,7,-1.11
COc1ccccc1S(=O)(=O)N1CCO[C@H](c2noc(C(C)C)n2)C1,-15,1.59
O=C(Cn1ncn2nc(-c3ccccc3)cc2c1=O)N1CCC(Cc2ccccc2)CC1,-9,0.76
O=S(=O)(NCc1cc(-c2ccccc2Cl)no1)c1ccccc1,-1,0.11
Cc1ccccc1N(C(=O)C[C@H](C)N1CCCCC1=O)C(C)C,2,-0.4
COc1c(F)cc(NC(=O)[C@H]2CNCCO2)cc1F,0,0.02
O=C(C=Cc1cscn1)NOCc1ccccc1,-1,0.13
CN1CCN([C@H]2CN(c3ncccc3C#N)C[C@@H]2O)CC1,1,-0.15
CCCC(CCC)C(=O)Nc1ccc(NC(C)=O)cc1,-4,0.84
CN(Cc1ccccc1)C(=O)CCC1CCN(c2ccc3ccccc3n2)CC1,-10,1.44
CS(=O)(=O)N1CCN(C(=O)[C@]2(c3ccccc3)CC23CCCC3)CC1,-6,0.56
